In the supplement of paper PMC10126150:
Values marked as one replicate rest on one cluster of the flow cell; about a third of the high ones do not repeat.

System: ATP
Test: switch fluorescence ratio, 500 uM ATP over buffer (Cy3 cluster intensity, sum of 5 cycles each) (fold (ratio)); higher = stronger signal-on switching upon ATP binding; sequences stand for … in TCGTCGGCAGCGTCAGATGTGTATAAGAGACAGTTTTTTTTTTTTTTTTTTTTTTTTT…TC
Details: aptamer strand: ATP DNA aptamer (quencher-CACCTGGGGGAGTATTGCGGAGGAAGG + anchor), 100 nM annealed; ATP concentration: 500 uM; one replicate
How it was run: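 Per cluster, summed Cy3 intensity from the target cycles was divided by that from the buffer cycles to give the fluorescence ratio, then averaged per switch-domain sequence. Clusters outside 100-1000 RFU were excluded. The Cy3-labelled switching-strand clusters, on a modified Illumina MiSeq flow-cell, were annealed to 100 nM quencher-labelled ATP aptamer and imaged in selection buffer, then after 15 min with 500 uM ATP at 22 °C, for five cycles with NaOH stripping and re-annealing between them.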
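Note: ATP exposure 15 min at 22 °C before imaging.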

Sequence	switch fluorescence ratio
CAAATGCGTA	1.02
AGGAAAACAC	1.02
TGGACTTGGC	0.959
CTCTGCCTTT	1.9
TGGAGGGGG	1.02
GTGAGGACTG	0.867
CAGGGGATCA	0.945
AGGCGTAACT	1.01
GGATTTCAT	1
CCTATCAGCT	1.18
AGTATAAGTT	1.01
TAAAACATAC	1.23
GAAAGGCAAG	0.988
CTTCGATAGG	1.03
CCCTGGTATG	1.12
ACCGTGTGGT	0.991
GATTTTACG	1.01
AATAAAACAA	0.987
GCGTTAAAGA	1.01
CTTTTATTCT	0.99
ATGACTTGGA	1.03
CATTGTGTGG	1
GATAGAAGTC	0.985

Sequence	switch fluorescence ratio
GCTATCGTCC	1.04
TAATACAGGA	1.03
TATATTGGAA	1.01
CCGTCCGTGT	1.15
TCACTCATGA	1.04
GGGGAAGTG	0.977
GCTTACAGCA	0.998
ATCCTACAAC	1.04
CTTTACCTCA	1.06
TGTGAGATGA	0.989
ATGGCTTTAC	1.12
AGAATGTCCT	0.996
CCATGCAACG	1.08
AGTCGTGATC	1.05
CGGCGCCGG	0.982
GCGTCGTCAG	1.04
ATGTTTTGTT	0.985
AATACTGGGC	1.01
AATGCGAGGG	0.993
ACCTCGGTTT	0.999
ACGGTACAAG	1.4
CCGTAACTTT	1.15
AATATTATTT	1.01

Sequence	switch fluorescence ratio
GTTTTCTAAT	0.969
GCGTTCTAAC	1.03
TTTAGACATA	1.02
TTGCTGCTT	0.97
GTCCAGTCGA	0.988
GAACCTACGC	1.94
GATTGCGAGT	0.966
GAGGGCCATG	1.01
AAGATCTGGA	0.983
CAACTCAGGC	1
AGTATATTAC	1.03
AGGATTGTTA	1.02
TTAAGTGAGT	1.02
CGTGAATGTG	0.928
TTCTGACCGT	1.05
CAACAGGGGA	1.4
ACACCATCCG	1.13
TAATTAGGT	0.995
AACTGGAATT	1.01
CCTGGAGTTT	1.03
AGGAGTATGT	0.954
TTTAAGTTCG	1.01
GCCGTGACCC	1.02

Sequence	switch fluorescence ratio
CACTAGCG	0.975
ACTACCGCGC	2.04
AGATAGGACC	1.01
TATTCTTGCA	1.02
CTAAATGTCG	0.913
CGCTTTATCC	1.21
CTAGGCGGGA	1
TTAGAGTCA	0.968
AATGGTGAAC	0.959
TATCGGCGTT	0.992
ATAAAGGTAA	0.979
TGAGATTATA	0.995
AATTGTCCGT	1.06
GGGTTCACAG	0.96
GATCGGACTG	0.984
TACAGGGTGA	1.02
CTTTACGAGA	1.02
CGGTTCATTC	1.06
CCGGACTCAA	2.59
GCTGGCCAGT	1.04
AATTGTGGCC	1.01
GACCGTCCTA	1.11
TTAGAAAAC	1.01

Sequence	switch fluorescence ratio
CTGAAGGGT	0.998
ATGTCAGGAT	0.995
GCGTCTGCAG	1.02
CGGAGTCTAG	1.09
GCAATGTGC	1.23
ATCACTCATA	1.02
AGATCCAAGT	1
AGTCAGCTGC	1.03
TCGCGGCTCA	1.11
AACGGTACAG	1.29
ACATGATTTT	1.01
GAAAGTCACA	1.06
TTCAAGACCG	1.01
GGAATATCAA	1.01
AGATTGTCGA	1
TTACGACCGC	1.21
ACCATCGTCG	0.99
GATTAATTCA	1.02
TTCCTCTTAG	1.11
GATAGGTGAC	1.02
CTGTGTGGGC	1.01
ACATTCGTTC	0.98
CCGTTATCAT	0.964

Sequence	switch fluorescence ratio
AATGAGTTA	0.979
CTTAGACGAC	1.02
AAAAGCTTCC	3.2
GGGATATCGC	0.975
TCTAATTAGG	1.02
CGTTACGACC	1.5
AGTCCACAAA	1.09
TTCATGACCC	1.02
GTTCTTCGG	0.969
TCGGTGTACG	1.07
CTTAGGAGCG	0.979
ACAGTGACCG	1.04
CCTGGTGTTC	1.26
CCGTCTGAAT	1.06
GACGGCCAC	1.62
TTATACGTTT	1.14
AGGTCTGCGC	1.05
TCAGACGACG	0.954
GTACGCAGTG	1.01
GCGTGTCTAC	0.996
TTTAAGAT	0.942
ACATAGTGAT	1.02
GTTGCACGGT	0.996

Sequence	switch fluorescence ratio
TTACTTGTT	0.958
GCGTTTCTGC	1.06
ATGAGTTCAT	1.05
GGCCATAATC	0.986
ACGAATGCCC	1.15
GAATCTGCGG	1.01
TTGAACGTAC	1.9
CGGCGTAATG	1.18
GGTTAAATGG	0.997
GCAGGGGAG	0.989
AATGAGGTGT	0.971
AATACGTT	1.03
AGACACTTAG	1
TCGGCTAGCG	0.957
GGTGATACTT	1.11
CCTCGGCCGC	3.04
TACTATAAGG	1.4
GCTAAGTGTC	0.956
GGGAATCGGA	0.998
GGTTACCGAT	1.04
